# The campaign covered roughly 310,000 compounds. About 11,000 (3.5%) were called active. The shares of active, inactive and inconclusive entries below differ from those in the screen. Calls come from the whole dose curve; as a rule, active = well fitted inhibition curve with a large enough effect; inconclusive = small, poorly fitted or top-dose-only effect, or effect the other way; inactive = flat fitted curve, though single readings scatter. No potency is given beside an inconclusive call; the fits are too rough.
# Test: VP16 counterscreen qHTS for inhibitors of ROR gamma transcriptional activity;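 note: Gal4-VP16 expression switched on by copper sulfate through the metallothionein promoter; nearly all actives have a fitted effect of over 50% in size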
# Details: Drosophila S2 Gal4-VP16 UAS-luciferase, luminescence, 20 h; activity, negative = inhibition: at 53.6 µM (top of the series)
# % is set by controls: 0 for no effect and ±100 for the full control effect; potency is the fitted concentration of half-maximal effect; tags give direction and shape of the fitted curve.
SMILES,Potency,"activity, negative = inhibition"
COc1ccc(OC)c(-c2csc(NC(=O)Cn3[nH]c(=O)c4ccccc4c3=O)n2)c1,"inconclusive [inhibitor, single point]",
Cc1cc(C)nc(-n2nc(C)cc2NC(=O)CN2CCc3ccccc3C2)n1,active: 2.82 µM,
Cc1ccc(C(=O)Nc2ncc(Cc3ccc(SC(F)F)cc3)s2)cc1,"inconclusive [inhibitor, single point]",
O=C(Nc1nc2c(s1)CCCC2)c1ccc(S(=O)(=O)N2CCCc3ccccc32)cc1,"inconclusive [inhibitor, single point]",
COc1ccc(OCC(=O)N2CCN(c3nnc(-c4ccccc4)c4ccccc34)CC2)cc1,"inconclusive [inhibitor, single point]",
CSc1ncc(CN2CCN(CC=C(C)C)C(CCO)C2)cn1 (stereo not drawn),,inactive: -12.7%
Cn1nc(OC(=O)Nc2ccc(Cl)cc2)cc1C(F)(F)F,,inactive: 15.9%
CN1CCN(C(=S)NC(=O)c2ccc(Br)cc2)CC1,active: 1.12 µM,
CCOC(=O)c1c(NC(=O)CN2CCOCC2)sc2c1CC(C)(C)OC2,,inactive: -3.82%
CC(=O)NC(=S)c1c(N)n(Cc2ccccc2)c(=O)n(C)c1=O,active: 2.82 µM,
COc1ccc(/C=C(\NC(=O)c2ccccc2)C(=O)N/N=C/c2sccc2C)cc1,active: 22.4 µM,
COc1cc2nc(CN3CCC(C(O)(c4ccccc4)c4ccccc4)CC3)[nH]c(=O)c2cc1OC,,inactive: -2.6%
COc1cc(NS(=O)(=O)c2ccc(N/C=C(\C=O)c3nc4ccccc4o3)cc2)nc(OC)n1,"inconclusive [inhibitor, single point]",
CCCCCC(=O)NC(=S)Nc1ccc(N2CCOCC2)cc1,active: 2.24 µM,
CC1(c2ccc(OC(F)F)cc2)NC(=O)N(/N=C/c2c(O)ccc3ccccc23)C1=O (stereo not drawn),active: 14.1 µM,
CCC(C)C1C(C#N)=C(N)Oc2n[nH]c(C)c21 (stereo not drawn),,inactive: 1.43%
COCCN=C1Sc2nc3c(C)cccc3cc2CN1Cc1ccco1,"inconclusive [inhibitor, partial curve]",
CCc1ccccc1NC(=S)N(Cc1cccs1)C1CCCC1,,inactive: 14.8% [at 10 µM]
O=C(COC(=O)c1cc([N+](=O)[O-])ccc1N1CCOCC1)Nc1ncc(Cl)cc1Cl,"inconclusive [inhibitor, single point]",
C/C(=N\Nc1ccc(Cl)cc1)c1ccccn1,"inconclusive [activator, partial curve]",
CN(C(=O)COC(=O)c1nc(Cl)c(Cl)c(Cl)c1Cl)C1CCS(=O)(=O)C1 (stereo not drawn),"inconclusive [inhibitor, partial curve]",
CCOc1nc2c(c(=O)n(C)c(=O)n2C)n1Cc1ccccc1Cl,,inactive: 0.773%
O=C(/C=C\Nc1cccc(F)c1)c1ccc2c(c1)OCO2,active: 10 µM,
Cc1ccc(S(=O)(=O)Nc2c(Cl)c(Cl)c(O)c3ccccc23)cc1,"inconclusive [inhibitor, single point]",

SMILES,Potency,"activity, negative = inhibition"
Cc1ccc(OCCNC(=O)c2ccccc2F)cc1,"inconclusive [activator, single point]",
Cc1sc2ncnc(N3CCN(S(=O)(=O)c4ccc(F)cc4)CC3)c2c1C,active: 22.4 µM,
CC(C)c1cc(C(=O)Nc2ccc3c(c2)OCO3)no1,"inconclusive [activator, single point]",
COc1ccc(-c2csc(Nc3ccccn3)n2)cc1OC,,inactive: -8.89%
COc1ccc2[nH]c3c(N4CCC(O)(c5cccc(C(F)(F)F)c5)CC4)ncnc3c2c1,"inconclusive [inhibitor, single point]",
CSC1=C(C#N)C(c2cccs2)CC(=O)N1C (stereo not drawn),,inactive: -16.6%
CCCOc1ccc(Br)cc1/C=N/O,"inconclusive [inhibitor, single point]",
CCn1c(COc2cc(C)ccc2C(C)C)nnc1SCC(=O)Nc1nccs1,,inactive: -3.65%
CCOc1cccc2cc(C(=O)NC(C)c3ccccc3)c(=N)oc12 (stereo not drawn),,inactive: -1.86%
CSc1c(CC(=O)Nc2ccccc2C(F)(F)F)n(Cc2ccccc2)c2ccccc12,"inconclusive [inhibitor, partial curve]",
O=C(Nc1nc2ccccc2[nH]1)c1ccc(Cl)cc1,active: 2.82 µM,
C/C(=N\NC(=O)c1ccc(Cl)cc1)c1cccs1,active: 15.8 µM,
CC(C(=O)NC1CCCC1)N(Cc1ccco1)C(=O)c1snc(C(=O)NC2CCCC2)c1N (stereo not drawn),"inconclusive [inhibitor, partial curve]",
Cc1cc(C)c(S(=O)(=O)Nc2cc(SCC(=O)O)c(O)c3ccccc23)cc1C,"inconclusive [inhibitor, single point]",
O=C(CSc1nc(-c2ccc(F)cc2)cc(C(F)(F)F)n1)Nc1ccc2c(c1)OCO2,"inconclusive [inhibitor, single point]",
Cc1cccc(NC(=S)NCCC(C)C)c1,"inconclusive [inhibitor, partial curve, poor fit]",
CCN(CC)S(=O)(=O)c1ccc(NC2c3ccccc3C(=O)N2Cc2ccc3c(c2)OCO3)cc1 (stereo not drawn),,inactive: -3.68%
CSc1ccccc1NC(=O)c1cc(Cl)sc1Cl,"inconclusive [activator, single point]",
CCOc1ccc(C(C)=O)cc1N1C(=O)C2C3C=CC(O3)C2C1=O (stereo not drawn),active: 6.31 µM,
CCn1ccc(C(=O)Nc2ncc(C)s2)n1,"inconclusive [inhibitor, single point]",
Oc1ccc(/C=C/c2ccc3cccc(O)c3n2)cc1Br,active: 17.8 µM,
COc1ccc(-n2cccc2/C=C2/NC(=O)N(c3cccc(Cl)c3)C2=O)cc1,"inconclusive [activator, single point]",
O=C(Nc1nc(-c2ccc(Cl)s2)cs1)c1ccccc1,"inconclusive [inhibitor, single point]",
CCNC(=S)NNc1nnc(-c2ccccc2)c(-c2ccccc2)n1,"inconclusive [inhibitor, partial curve]",

# From PubChem BioAssay AID2546 (National Center for Advancing Translational Sciences (NCATS), 2010)
